# Measured values as given in the supplement of paper PMC3334620.
# The full ranking holds about 33,000 sequences; the median of “E-score (-0.5 to 0.5)” is about -0.043, and the highest 2% start at about 0.37. This is one part of the list.
# Target: T1, Upc2 (UniProt Q12151)
# T1 sequence: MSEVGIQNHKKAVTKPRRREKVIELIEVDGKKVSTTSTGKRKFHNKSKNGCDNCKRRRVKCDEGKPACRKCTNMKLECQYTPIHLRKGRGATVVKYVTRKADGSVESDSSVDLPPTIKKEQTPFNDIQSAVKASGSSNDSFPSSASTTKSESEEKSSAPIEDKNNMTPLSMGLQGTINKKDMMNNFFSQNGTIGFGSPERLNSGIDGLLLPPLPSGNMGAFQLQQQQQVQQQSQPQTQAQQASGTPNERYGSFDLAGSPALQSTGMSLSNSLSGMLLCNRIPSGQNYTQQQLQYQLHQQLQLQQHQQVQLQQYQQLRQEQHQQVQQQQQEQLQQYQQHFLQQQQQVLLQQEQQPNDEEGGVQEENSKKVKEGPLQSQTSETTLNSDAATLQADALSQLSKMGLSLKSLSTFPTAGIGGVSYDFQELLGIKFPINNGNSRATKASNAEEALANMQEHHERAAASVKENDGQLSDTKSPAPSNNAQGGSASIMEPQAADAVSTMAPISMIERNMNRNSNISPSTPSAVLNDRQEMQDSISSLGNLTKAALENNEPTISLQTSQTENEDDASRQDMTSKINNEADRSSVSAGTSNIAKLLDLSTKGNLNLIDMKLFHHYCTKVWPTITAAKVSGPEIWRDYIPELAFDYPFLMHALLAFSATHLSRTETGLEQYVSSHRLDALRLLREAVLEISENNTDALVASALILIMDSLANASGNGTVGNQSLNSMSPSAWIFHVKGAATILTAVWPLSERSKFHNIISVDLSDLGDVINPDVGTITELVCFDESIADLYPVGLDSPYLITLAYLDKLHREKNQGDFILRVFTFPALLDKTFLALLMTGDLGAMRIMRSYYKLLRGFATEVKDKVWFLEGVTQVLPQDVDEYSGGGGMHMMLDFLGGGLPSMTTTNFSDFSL
# Assay: PBM E-score (8-mer binding enrichment) (E-score (-0.5 to 0.5)); higher = stronger / more preferred TF binding; most listed sequences are background and not binding sites
# Settings: protein concentration: 200 nM; construct: GST-full length
# Experimental: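 Universal 'all 10-mer' protein binding microarrays (Agilent AMADID 015681) probed with GST-tagged S. cerevisiae TFs (full-length or DBD) made by in vitro transcription/translation (PURExpress), about 100-200 nM. Bound TF was detected with fluorescent anti-GST. Each ungapped 8-mer (which stands for itself and its reverse complement) is scored by the PBM enrichment score (E-score), a modified Wilcoxon-Mann-Whitney statistic from -0.5 to +0.5, computed with the Universal PBM Analysis Suite. Scale: above 0.35 generally sequence-specific binding.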
row,Sequence,PBM E-score
1,CGGTAACA,0.0639
2,CCTAGATA,-0.0107
3,AGCTCATA,-0.169
4,ACACAACT,-0.00132
5,AGCATTGA,-0.138
6,AGGGAGCA,-0.196
7,TTCGTAAA,0.459
8,CTGTAGGA,0.0711
9,AAGAGGCG,0.0206
10,AGAGCCAC,-0.0191
11,AAGCACTT,-0.0533
12,GCCTAGCC,-0.203
13,CGTGACCA,-0.26
14,CTAATGAG,-0.0718
15,ATGTTACC,0.0421
16,CCGCACGA,0.119
17,ATAGCACG,0.0151
18,AGTGCGCG,-0.108
19,GTGATCAA,-0.096
20,GTGGACTA,-0.0869
21,GGCAGGCA,-0.372
22,CCTCAAGC,-0.206

row,Sequence,PBM E-score
1,AAGCGGTG,-0.0225
2,CAAATAAA,0.0916
3,ACGCGCCT,0.21
4,GTGCGGGA,-0.00398
5,CCCATGAC,-0.0529
6,AAGGTATT,0.0171
7,AAAACGTT,0.0958
8,ACCGGATA,0.041
9,CAATAGTC,-0.256
10,AATCCAGC,-0.175
11,GATACCCC,-0.00201
12,ACTCATCT,-0.037
13,CTGGAGAA,-0.223
14,CAATTCGG,0.161
15,AGCCCCAA,-0.109
16,CCACACTA,-0.118
17,CCTATGTC,-0.0856
18,ACGCGCAG,0.0316
19,GAAATCGC,-0.0266
20,AACTGTTC,-0.159
21,CCCCCTAG,-0.252
22,CAGATAGG,-0.0703

row,Sequence,PBM E-score
1,AGCGATAC,0.202
2,CTGAATAC,0.143
3,TCATGCAA,-0.0292
4,CAGAAAAG,0.0825
5,AAATCTCC,-0.271
6,AAGTCGAT,-0.0302
7,CGGCTAGC,-0.171
8,TCCCCGCA,-0.0337
9,GGCCAAAC,0.0898
10,CATTGGCA,-0.286
11,AGTCTTGG,-0.0465
12,AACTCACT,-0.291
13,CACATCGA,0.0622
14,CAAAGTTG,-0.232
15,AAGAACAT,-0.0961
16,AAGGGGAT,-0.0822
17,ATATTCGC,0.095
18,GTCCGAGA,0.205
19,ATGCTTGA,-0.115
20,ATCAGCAA,-0.269
21,AAAGACCC,-0.204
22,TCGATCCA,-0.0534

row,Sequence,PBM E-score
1,ATGCGCGA,0.101
2,ACTGGAGA,-0.105
3,ATCACAAG,-0.0323
4,CTCTTTTC,-0.0569
5,CTGAGAAA,-0.0796
6,GACGTGTA,-0.0304
7,AACACGAA,0.162
8,CTCCCGGA,-0.135
9,AAGATGCG,0.0891
10,AGAGGACT,-0.327
11,AGGTTTAC,0.0227
12,ATCCGATA,0.149
13,GGGTATCA,-0.178
14,CACGACAA,0.0377
15,CTCCCCTC,-0.0398
16,AAGTACAA,0.0513
17,GCTGAAAA,0.039
18,AACACCAC,-0.147
19,AGTAGTCA,-0.222
20,CGGATCCA,0.0178
